In assay [1] the target is T1, recombinant human CD80-Fc chimera protein (R&D Systems) (human, UniProt P33681 35-242).
T1 construct: Bought reagent; not shown: Fc part
T1 sequence (looked up): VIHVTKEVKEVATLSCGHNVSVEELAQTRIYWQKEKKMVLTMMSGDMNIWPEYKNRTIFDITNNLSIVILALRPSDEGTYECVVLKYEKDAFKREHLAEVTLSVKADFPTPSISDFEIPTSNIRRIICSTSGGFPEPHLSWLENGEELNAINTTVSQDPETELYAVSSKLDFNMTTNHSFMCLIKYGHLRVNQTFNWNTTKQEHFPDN
The assay can be described thus: live-cell imaging (IncuCyte) of 293T cells expressing CTLA-4 2NQ with CD80-Fc and anti-human Alexa Fluor 488 conjugate. From the text:
(§1) The secondary antibodies used were anti-human Alexa Fluor 488 dye conjugate (Life Technologies). The fluorescence intensity of Alexa Fluor 488 dye was then monitored using a real-time microscope IncuCyte (Essen BioScience, Ann Arbor, Mich., USA).

Assay [2] addresses T2, recombinant human CD86-Fc chimera protein (R&D Systems) (human, UniProt P42081 26-245, limits assumed).
T2 construct: Bought reagent; also called recombinant human CD86-Fc protein; not shown: Fc part
T2 sequence (looked up): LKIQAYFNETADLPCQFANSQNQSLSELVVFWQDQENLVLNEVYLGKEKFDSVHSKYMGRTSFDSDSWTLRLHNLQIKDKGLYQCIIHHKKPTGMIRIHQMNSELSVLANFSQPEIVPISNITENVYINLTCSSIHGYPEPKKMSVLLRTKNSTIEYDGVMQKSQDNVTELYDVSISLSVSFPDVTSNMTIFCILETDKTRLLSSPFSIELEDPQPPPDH
In words: live-cell imaging (IncuCyte) of 293T cells expressing CTLA-4 2NQ with CD86-Fc and anti-human Alexa Fluor 488 conjugate.
Excerpt: as §1

For assay [3], the target named is T2, recombinant human CD86-Fc chimera …. In words: live-cell imaging (IncuCyte) of 293T cells expressing CTLA-4 WT with CD86-Fc and anti-human Alexa Fluor 488 conjugate.
Excerpt: as §1

The target in assay [4] is T1, recombinant human CD80-Fc chimera …. In words: live-cell imaging (IncuCyte) of 293T cells expressing CTLA-4 WT with CD80-Fc and anti-human Alexa Fluor 488 conjugate.
Excerpt: as §1

B1: CTLA-4 2NQ (non-glycosylated form) expressed in 293T cells (receptor)
chain: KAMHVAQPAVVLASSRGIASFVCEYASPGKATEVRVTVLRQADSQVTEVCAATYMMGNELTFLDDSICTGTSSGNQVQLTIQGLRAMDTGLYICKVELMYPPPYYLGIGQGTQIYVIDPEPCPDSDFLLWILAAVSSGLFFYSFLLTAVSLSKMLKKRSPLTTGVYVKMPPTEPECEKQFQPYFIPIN
notes: also called CTLA-4 2NQ mutant; unglycosylated CTLA-4
With B1, the binding result in assay [1] and in assay [2] was “no binding” each time.

B2: CTLA-4 WT expressed on 293T cells (receptor)
chain: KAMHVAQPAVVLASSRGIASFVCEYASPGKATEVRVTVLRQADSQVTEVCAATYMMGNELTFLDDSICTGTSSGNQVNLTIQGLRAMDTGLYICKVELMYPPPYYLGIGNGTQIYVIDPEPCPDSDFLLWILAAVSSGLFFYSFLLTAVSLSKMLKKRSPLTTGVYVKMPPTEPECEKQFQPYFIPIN
modifications: N-linked glycosylation at N113 and N145
notes: also called wild type CTLA-4; Flag-tagged CTLA-4 WT
In the case of B2, the binding result in assay [3] and in assay [4] was “binds” each time.

The record behind these values is US20220411511A1 (STCUBE, published 2022).
